Patent publication US20050048528A1 (WALTER AND ELIZA HALL INSTITUTE OF MEDICAL RESEARCH, published 2005)

Target: T1, HA-tagged BRCA1 SZ fragment (residues 1528-1863) (human, UniProt P38398 1528-1863, 35S-methionine-labeled in the in vitro binding assay)
T1 construct: also called BRCT (SZ) region
Assay: in vitro binding of 35S-labeled BRCA1-SZ to GST on glutathione sepharose, SDS-PAGE
Procedure: Binding assays were carried out with a 10 μl aliquot of […] BRCA1-SZ primed lysate and 100 μl (50% slurry of GST-sepharose beads; Amersham Pharmacia) of GST-LMO4 or GST-only protein in GST interaction buffer (150 mM NaCl, 10 mM Tris pH 8, 0.3% NP-40, 1 mM DTT, 0.25% BSA and 0.5 mM phenylmethylsulfonyl fluoride) for 2 hours at 4° C. The beads were subsequently washed twice in GST interaction buffer containing BSA, followed by two more washes in GST interaction buffer without BSA. Finally, the bound BRCA1 C-terminal polypeptide was eluted by boiling the beads for 5 min in 30 μl loading buffer and analysed by SDS-PAGE.
This region encompasses two tandem BRCT motifs that are required for BRCA1 function in the suppression of tumorigenesis (Yu, X., Wu, L. C., Bowcock, A. M., Aronheim, A., and Baer, R. (1998) J Biol Chem 273(39), 25388-92;Wong, A. K., Ormonde, P. A., Pero, R., Chen, Y., Lian, L., Salada, G., Berry, S., Lawrence, Q., Dayananth, P., Ha, P., Tavtigian, S. V., Teng, D. H., and Bartel, P. L. (1998) Oncogene 17(18), 2279-85;Li, S., Chen, P. L., Subramanian, T., Chinnadurai, G., Tomlinson, G., Osborne, C. K., Sharp, Z. D., and Lee, W. H. (1999) J Biol Chem 274(16), 11334-8). We confirmed the association between LMO4 and BRCA1 using an in vitro binding assay.

B1: GST alone (other)
chain: not shown
notes: also called GST-only protein
Question: Does B1 bind?
Answer: Result: no binding
